Drawing on the antibiotic and cytotoxicity screens of Wong et al. (2023), this text covers cytotoxicity call and growth inhibition call for 27 compounds.

The list shows a part of the results.

For one test, the system named is HSkMC. As to the kind of experiment: cytotoxicity call (relative viability < 0.9). The conditions noted are these: 10 µM.
In another test the test system is HepG2. Briefly: cytotoxicity call (relative viability < 0.9). The conditions noted are these: 10 µM.
The test system of another test is S. aureus RN4220. Briefly: growth inhibition call (relative growth <= 0.2). The conditions noted are these: 50 µM.

Consider `C[N+](C)(C)CCCC[C@@H]1NC(=O)[C@H]2C[C@@H](C(=O)NCc3ccc(F)cc3)[C@@H](c3cccc(OCCO)c3)N2C1=O`, for which the cytotoxicity call with HSkMC and with HepG2 was “inactive” in each case. For the same compound, the growth inhibition call with S. aureus RN4220 is “inactive”.
In the case of `Cc1ccc(S(=O)(=O)Nc2ccc3c(c2)C(=O)N([C@@H](C)CO)C[C@H](C)[C@@H](CN(C)CC2CCCCC2)OCCCC[C@H](C)O3)cc1`, the cytotoxicity call in the test with HSkMC and in the test on HepG2 was “inactive” each time. Also, the growth inhibition call with S. aureus RN4220 was “inactive”.
As for `COc1ccc(S(=O)(=O)Nc2ccc3c(c2)CC(=O)N([C@@H](C)CO)C[C@H](C)[C@H](CN(C)S(=O)(=O)c2ccc(F)cc2)O3)cc1`, the cytotoxicity call in the test with HSkMC and in the test with HepG2 was “inactive” in each case. Besides, the growth inhibition call in the test with S. aureus RN4220 is “inactive”.
With `Cn1cnc(S(=O)(=O)N[C@@H]2CC[C@@H](CC(=O)N3CCN(c4ccccc4)CC3)O[C@H]2CO)c1`, the cytotoxicity call with HSkMC and in the test with HepG2 was “inactive” each time. For the same compound, the growth inhibition call in the test with S. aureus RN4220 was “inactive”.
For `C(=N\c1nc2ccccc2[nH]1)/N(c1ccccc1)c1ccccc1`, the cytotoxicity call in the test on HSkMC is “inactive”. In the test with HepG2, the cytotoxicity call is “active”. In addition, the growth inhibition call in the test with S. aureus RN4220 is “inactive”.
`C[C@H](CO)N1C[C@H](C)[C@H](CN(C)S(=O)(=O)c2ccc(Cl)cc2)OCCCC[C@H](C)Oc2ccc(NS(=O)(=O)c3ccc(Cl)cc3)cc2C1=O`: the cytotoxicity call in the test with HSkMC was “inactive”. Further, the cytotoxicity call with HepG2 is “active”. For the same compound, the growth inhibition call in the test with S. aureus RN4220 was “inactive”.
As for `COc1ccc(NC(=O)Nc2ccc3c(c2)C(=O)N([C@@H](C)CO)C[C@H](C)[C@@H](CN(C)S(=O)(=O)c2ccc(C)cc2)OCCCC[C@@H](C)O3)cc1`, the cytotoxicity call in the test with HSkMC was “inactive”. Also, the cytotoxicity call in the test with HepG2 is “active”. The growth inhibition call in the test on S. aureus RN4220 is “inactive”.
With `COCC(=O)Nc1ccc2c(c1)C(=O)N(C)[C@H]1CC[C@@H](CC(=O)NCc3ccc(OC)cc3)O[C@@H]1CO2`, the cytotoxicity call with HSkMC and in the test on HepG2 was “inactive” throughout. For the same compound, in the test with S. aureus RN4220, the growth inhibition call was “inactive”.
Consider `COc1ccc(S(=O)(=O)Nc2ccc3c(c2)CC(=O)N([C@H](C)CO)C[C@H](C)[C@@H](CN(C)S(=O)(=O)c2cn(C)cn2)O3)cc1`, for which the cytotoxicity call with HSkMC and in the test with HepG2 was “inactive” each time. For the same compound, the growth inhibition call with S. aureus RN4220 is “inactive”.
Take `O=C(C1=C[C@H](c2csc3ccccc23)C[C@H](OCc2ccc(CO)cc2)O1)N1CCN(Cc2ccccc2)CC1`: the cytotoxicity call in the test on HSkMC and with HepG2 was “inactive” throughout. In the test on S. aureus RN4220, the growth inhibition call is “inactive”.
Consider `O=C1CCCCCN1`, for which the cytotoxicity call in the test on HSkMC and in the test on HepG2 was “inactive” each time. Moreover, in the test on S. aureus RN4220, the growth inhibition call was “inactive”.
With `O=C(CS)NCCCCCCNC(=O)[C@@H]1C[C@@H]2C(=O)N[C@@H](Cc3ccccc3)C(=O)N2[C@@H]1c1ccc(O)cc1`, the cytotoxicity call with HSkMC and in the test on HepG2 was “inactive” in each case. In addition, in the test on S. aureus RN4220, the growth inhibition call was “inactive”.
For `COc1ccc(S(=O)(=O)N(C)C[C@@H]2Oc3ccc(NS(=O)(=O)c4ccc(F)cc4)cc3CC(=O)N([C@H](C)CO)C[C@H]2C)cc1`, the cytotoxicity call in the test on HSkMC and in the test with HepG2 was “inactive” in each case. For the same compound, in the test with S. aureus RN4220, the growth inhibition call was “inactive”.
As for `O=S1(=O)CO[C@@H](c2ccccc2)CN1`, the cytotoxicity call in the test on HSkMC and with HepG2 was “inactive” in each case. Also, the growth inhibition call in the test on S. aureus RN4220 is “inactive”.
Turning to `Cc1cc(O)c(-c2ccc([C@@H](C)CN)cc2)c2c1[nH]c(=O)c1sccc12`, the cytotoxicity call in the test with HSkMC is “inactive”. Further, the cytotoxicity call in the test with HepG2 is “active”. In the test with S. aureus RN4220, the growth inhibition call was “inactive”.
With `Cc1cc(C(=O)Nc2cccc3c2O[C@H](CN(C)C(=O)Nc2ccccc2)[C@H](C)CN([C@@H](C)CO)C3=O)n(C)n1`, the cytotoxicity call in the test with HSkMC and in the test with HepG2 was “inactive” in each case. The growth inhibition call in the test on S. aureus RN4220 was “inactive”.
Regarding `NS(=O)(=O)c1cccc2c1c([N+](=O)[O-])cc1[nH]c(=O)c(=O)[nH]c12`, the cytotoxicity call with HSkMC and with HepG2 was “inactive” in each case. For the same compound, in the test on S. aureus RN4220, the growth inhibition call is “inactive”.
As to `CN(Cc1ccccc1)C(=O)[C@H](Cc1ccc2ccccc2c1)NC(=O)[C@@H]1CCCN1C(=O)Nc1ccccc1[N+](=O)[O-]`, the cytotoxicity call with HSkMC and with HepG2 was “inactive” each time. For the same compound, the growth inhibition call in the test with S. aureus RN4220 is “inactive”.
Consider `C[C@@H]1CN([C@@H](C)CO)C(=O)CCCn2nncc2CO[C@H]1CN(C)S(C)(=O)=O`, for which the cytotoxicity call in the test with HSkMC and in the test with HepG2 was “inactive” each time. Also, in the test on S. aureus RN4220, the growth inhibition call was “inactive”.
Consider `COc1cccc(S(=O)(=O)Nc2ccc3c(c2)[C@@H]2C[C@H](CC(=O)NCc4cccc(F)c4)O[C@@H](CO)[C@@H]2O3)c1`, for which the cytotoxicity call in the test with HSkMC and in the test on HepG2 was “inactive” each time. For the same compound, the growth inhibition call in the test on S. aureus RN4220 is “inactive”.
As to `C[C@@H]1CN([C@@H](C)CO)C(=O)c2cc(NS(=O)(=O)c3cn(C)cn3)ccc2O[C@@H]1CN(C)S(C)(=O)=O`, the cytotoxicity call in the test with HSkMC and with HepG2 was “inactive” each time. For the same compound, the growth inhibition call in the test on S. aureus RN4220 was “inactive”.
For the compound `CCCNC(=O)N(C)C[C@H]1Oc2cc(C#Cc3ccccn3)ccc2S(=O)(=O)N([C@@H](C)CO)C[C@H]1C`, the cytotoxicity call in the test on HSkMC and with HepG2 was “inactive” in each case. For the same compound, the growth inhibition call in the test on S. aureus RN4220 is “inactive”.
As to `COC(=O)c1c2oc(c1C(=O)OC)C(=O)N[C@@H](Cc1ccccc1)Cn1cc(nn1)[C@@H](Cc1ccccc1)NC(=O)N[C@@H](COC(=O)NCCCCCC(=O)NO)CC2`, the cytotoxicity call with HSkMC and in the test with HepG2 was “inactive” in each case. The growth inhibition call in the test with S. aureus RN4220 is “inactive”.
Take `C[C@H](CO)N1C[C@H](C)[C@H](CN(C)Cc2ccc(C(=O)Nc3ccccc3N)cc2)Oc2ccc(NC(=O)Cc3cn(C)c4ccccc34)cc2CC1=O`: the cytotoxicity call in the test on HSkMC and with HepG2 was “active” each time. Also, the growth inhibition call in the test with S. aureus RN4220 was “inactive”.
For the compound `C[C@@H]1CN([C@@H](C)CO)C(=O)Cc2cc(NC(=O)c3ccncc3)ccc2O[C@H]1CN(C)Cc1ccc2c(c1)OCO2`, the cytotoxicity call with HSkMC and in the test with HepG2 was “inactive” each time. Moreover, the growth inhibition call with S. aureus RN4220 is “inactive”.
With `O=C(C[C@@H]1CC[C@@H]2[C@H](COC[C@@H](O)CN2Cc2cccc(C(F)(F)F)c2)O1)NCCc1ccncc1`, the cytotoxicity call in the test on HSkMC (human skeletal muscle cells) and with HepG2 was “inactive” each time. Further, the growth inhibition call in the test on S. aureus RN4220 is “inactive”.
For `COc1ccccc1-c1ccc2c(c1)O[C@H](CN(C)S(=O)(=O)c1ccccc1)[C@@H](C)CN([C@H](C)CO)S2(=O)=O`, the cytotoxicity call with HSkMC and in the test with HepG2 was “inactive” throughout. Also, the growth inhibition call in the test on S. aureus RN4220 is “inactive”.
